# Source: the RNAGym collection of RNA variant scans (doi:10.1093/nar/gkz1192)
# The source gives no read counts; variants with many changes may rest on few reads.
# B1: CPEB3 Ribozyme (parent)
# chain: UAACAGGGGGCCACAGCAGAAGCGUUCACGUCGCAGCCCCUGUCAGAUUCUGGUGAAUCUGCGAAUUCUGCUGUAUAUCUC
# Variants of: B1
# Test: self-cleavage, relative activity (ratio to wild type); higher = more cleavage; in vitro, sequencing
# Procedure, shortened: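 Relative activity compares each variant's cleaved/total read fraction with that of the unmutated ribozyme. To get these fractions, barcoded CPEB3 ribozyme libraries from rounds of error-prone PCR were transcribed with T7 RNA polymerase for 5 hours at 37°C and then given 15 min of DNase I treatment before EDTA was added. The RNAs were reverse transcribed with template switching and sequenced on Illumina, and DNA sequencing linked barcodes to variants. A minimum of 5 reads applied, and three batches were averaged.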
row,Variant,self-cleavage
1,UAACAGAGGGCCGCAGCAGAAGAGUUCACGUCGCAGCCCCUGUCGGACUCUGGAGAAUCUGCGAGUUCUGCUGUAUAUCUC [G7A A13G C23A A45G U48C U54A A65G],0.07
2,UAACAGAGGGCCGCAGCAGAAGCGUUCACGUCGCAGCCCCUGUCAGAUUCUGGUGAAUCUGCACAUCCUGCUGUAUAUCUC [G7A A13G G63A A64C U67C],0.11
3,UAACAGAGGGCCGCAGCAGAAGCGUUCACGUCGCAGCCCCCGUCAGAUUCUGGUGAAUCUGCGAAUUCUGCUGUAUAUCUC [G7A A13G U41C],0.26
4,UAACAGAGGGCCGCAGCAGAAGCGUUCACGUCGCAGCCCCUGCCAGAUUCUGGUGAAUCUGCGAAUUCAGCUGUAUAUCUC [G7A A13G U43C U69A],0.12
5,UAACAGAGGGCCGCAGCAGAAGCGUUCACGUCGCAGCCCCUGUCAGAUUCUGGUGAAUCAGCGAAUUCUGCUGUAUAUCUC [G7A A13G U60A],0.24
6,UAACAGAGGGCCUCGGCAGAAGGGUUCACGUCGCAGCCCCUGUCAGAUUCUGGUGAAUCUGCGAAUUCUGCUGUAUAUCCC [G7A A13U A15G C23G U80C],0.09
7,UAACAGAGGGCCUCGGCAGAAGCGCUCACGUCGCAGCCCCUGUCAGAUUCUGGUGAGUCUGCGAAUUCUGCUGAAUACCUC [G7A A13U A15G U25C A57G U74A U78C],0.29
8,UAACAGAGGGCCUCAGCAGUAGCGUUCACGCCACAGCCCCUGUCAGAUUCUGGUGAAUCAGCGAAUUCUGCCGUAUAUCUC [G7A A13U A20U U31C G33A U60A U72C],0.06
9,UAACAGAGGGCCUCAGCAGAGGCGUUCACGUCGCAGCCCCUGUCAGAUCCUGGAGAAUCUGCGAAUUCUGCUGUAAAUCUC [G7A A13U A21G U49C U54A U76A],0.02
10,UAACAGAGGGCCUCAGCAGAAGCGUUCACGUCGCAGCCCCUGUCGGAUUCUGGUGAAUCUGCGAGUUCUGCUGUACACCUC [G7A A13U A45G A65G U76C U78C],0.05
11,UAACAGAGGGCCUCAGCAGAAGCGUUCACGUCGCAGCCCCUGUCAGGUUCUGGUGAAUCUGCGAAUUCUGCUGUAUAUCUC [G7A A13U A47G],0.21
12,UAACAGAGGGCCUCAGCAGAAGCGCUCACGUCGCAGCCCCUGUCAGAUUCUGGUGAAUCUGCGGAUUCUGCUGUAUAUCUC [G7A A13U U25C A64G],0.05
13,UAACAGAGGGCCUCAGCAGAAGCGUUCACGGCGCAGCCCCUGUCAGAUUCUGGUGAAUCUGCGAAUUCUGCUGUAUAUCUC [G7A A13U U31G],0.22
14,UAACAGAGGGCCUCAGCAGAAGCGUUCACGUCGCAGCCCCUGUCAGACUCUGGUGCAUCAGCGAAUUCUGCUGUAUAUCUC [G7A A13U U48C A56C U60A],0.04
15,UAACAGAGGGCCACCGCAGGGGCGUUCACGUUGCAGCCCCUGUCAUAUUCUGGUGAAUCUGCGAAUUCUGCUGUAAAUCUC [G7A A15C A20G A21G C32U G46U U76A],0.06
16,UAACAGAGGGCCACCGCAGAAGCGCUCACGUCGCUGCCCCUGUCUGAUUCUGGUGACUCUGCGAAUUCAGCUGUAUAUCUC [G7A A15C U25C A35U A45U A57C U69A],0.04
17,UAACAGAGGGCCACCGCAGAAGCGUUCACGUCGCAGCCCCUGUCAGAUUCAGGUAAGUCUGCGGAUUCUGCUGUAUAUCUC [G7A A15C U51A G55A A57G A64G],0.13

row,Variant,self-cleavage
1,UAACAGAGGGCCACGGCAGUAGCGUUCACGUCGCAGCCCCUGUCAGUUUCUGGUGAAUCUGCGAAUUCUGCUGUAUAUCUC [G7A A15G A20U A47U],0.23
2,UAACAGAGGGCCACGGCAGAGGCGUUCACGUCGCAGCCCCUGUCAGAUUCUGGUGAAUCUGCGAAUUCUGCUGUAUAUCUC [G7A A15G A21G],0.33
3,UAACAGAGGGCCACGGCAGAAGCGUUCACGUCGCAGCCCCUGUCGGAUUCUGGUAAGUCUGCGAAUUCUGCUGUUUAUCUC [G7A A15G A45G G55A A57G A75U],0.03
4,UAACAGAGGGCCACGGCAGAAGCGUUCACGUCGCAGCCCCUGUCAGAUUCUGGUGAAUCUGCGAAUUCUGCUGUUUAUCUC [G7A A15G A75U],0.07
5,UAACAGAGGGCCACGGCAGAAGCGUUCACGUCGCAGCCCCUGUCAGAUUCUGUUGAAUCUGCGAAUUCUGCUGUAUAUCUC [G7A A15G G53U],0.35
6,UAACAGAGGGCCACGGCAGAAGCGUCCACGUCGCAGCCCCUGUCAGAUUCCGGUGAAACUGCGAAUUCUGCUGUAUAUCUC [G7A A15G U26C U51C U58A],0.06
7,UAACAGAGGGCCACUGCAGAAGUGUCCACGUCGCAGCUCCUGUCAGAUUCUGGUGAAUCUGCGAAUUCUGCUGUAUAUCUC [G7A A15U C23U U26C C38U],0.05
8,UAACAGAGGGCCACUGCAGAAGCGGACACGUCGCAGCCCCUGCCAGAUUCUGGUGAAUCUGCGAAUUCUCCUGUAUAUCUC [G7A A15U U25G U26A U43C G70C],0.05
9,UAACAGAGGGCCACAGCGGGAGCGUUCAAGCCGCUGCCCCAGUCAGAUUCUGGUGAAUCUGCGAAUUCUGCUGUAUAUCUC [G7A A18G A20G C29A U31C A35U U41A],0.04
10,UAACAGAGGGCCACAGCGGAGGCGUUCACGUCGCAGCCCAUGUCAGAUUCUGGCGAAUCUGCGAACUCUGCUGUAUAUCUC [G7A A18G A21G C40A U54C U66C],0.04
11,UAACAGAGGGCCACAGCGGAAGCGUUCGCGUCGCAGCCCCUGUCAGAUUCUGGUGAAUCUCCGAAUUCUGCUGUAUAUCUC [G7A A18G A28G G61C],0.12
12,UAACAGAGGGCCACAGCGGAAGCGUUCACGUCGCGGCCCCUGUCAGAUUCUGGUGAAUCUGCGAGUUCUGCUGUAUAUCUC [G7A A18G A35G A65G],0.06
13,UAACAGAGGGCCACAGCGGAAGCGUUCACGUCGCAGCCCCUGUCUGAUUCUGGUGAAUCUGCGAAUUCUGCUGUAUAUCUC [G7A A18G A45U],0.19
14,UAACAGAGGGCCACAGCGGAAGCGUUCACGUCGCAGCCCCUAUCAGAUUCUGGUGAAUCUGCGAAUUCUGCUGUAUAUCUC [G7A A18G G42A],0.11
15,UAACAGAGGGCCACAGCGGAAGCGCUCACGUCGCAGCCCCUGUCAGAUUCUGGUGAAUCUGCGAGUACUGCUGUUUAUCUC [G7A A18G U25C A65G U67A A75U],0.09
16,UAACAGAGGGCCACAGCGGAAGCGUCCACGUCGCAGCCCCUGUCAGAUUCUGGUGAAUCUGCGAAUUCUGCUGUAUACCUC [G7A A18G U26C U78C],0.05
17,UAACAGAGGGCCACAGCGGAAGCGUUCACGACGCAGCCCCUCUCAGAUUCUGGUGAAUCUGCAAAUUAAGCUGUAUAUCUC [G7A A18G U31A G42C G63A C68A U69A],0.03
